Measured values published in PMC4336329 (PLoS ONE, 2015).
Out of some 310,000 compounds screened, about 2,200 (0.71%) showed an effect of 50% or more. The effect is printed as a negative number. The list shows a part of the results.

biological target: human ether-à-go-go-related gene (hERG) potassium channel (human, UniProt Q12809); assay: primary screen, population patch clamp on CHO cells stably expressing hERG
Sequence (Q12809 whole entry, looked up): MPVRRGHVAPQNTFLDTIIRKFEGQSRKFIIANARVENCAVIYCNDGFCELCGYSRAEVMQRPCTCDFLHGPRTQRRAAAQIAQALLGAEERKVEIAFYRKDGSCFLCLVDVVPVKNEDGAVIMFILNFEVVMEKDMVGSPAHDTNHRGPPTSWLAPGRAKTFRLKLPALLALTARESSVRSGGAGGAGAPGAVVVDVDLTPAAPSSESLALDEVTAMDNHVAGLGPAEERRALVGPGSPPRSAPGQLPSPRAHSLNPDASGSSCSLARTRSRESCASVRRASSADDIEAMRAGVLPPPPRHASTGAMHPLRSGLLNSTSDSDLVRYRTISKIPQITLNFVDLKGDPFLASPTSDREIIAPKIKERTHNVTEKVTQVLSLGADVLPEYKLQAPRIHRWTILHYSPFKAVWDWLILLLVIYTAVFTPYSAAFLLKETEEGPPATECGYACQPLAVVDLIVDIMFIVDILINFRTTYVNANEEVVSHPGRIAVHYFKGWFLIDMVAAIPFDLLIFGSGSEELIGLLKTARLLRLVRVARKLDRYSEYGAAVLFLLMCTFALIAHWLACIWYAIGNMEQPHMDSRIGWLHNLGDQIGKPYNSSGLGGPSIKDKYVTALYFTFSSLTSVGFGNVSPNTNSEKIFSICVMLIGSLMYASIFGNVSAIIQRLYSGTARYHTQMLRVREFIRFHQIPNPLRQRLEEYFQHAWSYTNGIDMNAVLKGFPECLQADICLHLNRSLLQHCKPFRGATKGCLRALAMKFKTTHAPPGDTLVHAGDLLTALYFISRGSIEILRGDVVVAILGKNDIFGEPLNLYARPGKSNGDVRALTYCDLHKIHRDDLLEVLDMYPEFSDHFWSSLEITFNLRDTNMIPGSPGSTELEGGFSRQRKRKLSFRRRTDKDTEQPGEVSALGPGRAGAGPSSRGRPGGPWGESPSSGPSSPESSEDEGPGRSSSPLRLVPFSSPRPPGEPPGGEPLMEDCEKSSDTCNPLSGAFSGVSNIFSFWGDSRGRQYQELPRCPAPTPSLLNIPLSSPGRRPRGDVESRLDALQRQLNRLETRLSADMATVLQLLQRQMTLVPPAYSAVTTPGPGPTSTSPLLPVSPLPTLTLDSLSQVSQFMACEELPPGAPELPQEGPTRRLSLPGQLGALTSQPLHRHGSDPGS

Row | Compound | hERG current change (%, negative = inhibition) at 1uM [%]
1 | CCN(CC)N=Nc1ccc(S(=O)(=O)[N-]c2nc(C)cc(C)n2)cc1.[K+] | -2.71
2 | CC(C)(C)NNC(=S)Nc1cccc(F)c1 | 11.1
3 | CCOc1ccccc1NC(=O)Cn1cnc2c(nnn2-c2cccc(OC)c2)c1=O | 12.2
4 | COc1cccc(-c2nc(CS(=O)(=O)CC(=O)NCCCN3CC(C)CC(C)C3)c(C)o2)c1 (centres unmarked) | -5.41
5 | COc1ccc(C(=O)NCCN2CCN(C(=O)c3ccc(OC)cc3)CC2)cc1 | -22.1
6 | COc1ccc(C(=O)NCCS(=O)(=O)N(C)Cc2ccccc2)cc1 | 3.51
7 | Cc1cccc(CC2CC(=O)N(c3ncccn3)C2=O)c1 (centres unmarked) | 13.6
8 | Cc1cc(OC(C)C(=O)NCCN2CCOCC2)c2c(C)c(C)c(=O)oc2c1 (centres unmarked) | 14.2
9 | O=C(CCNS(=O)(=O)c1ccc(Cl)cc1)N1CCCC1 | 16.9
10 | CCn1nc(NC(=O)c2ccccn2)c2cc3cccc(C)c3nc21 | 7.68
11 | CNC(=O)CN1C(=O)c2cccc3cccc1c23 | 14.5
12 | Cc1sc2nc(CN3CCC(C)CC3)nc(Cl)c2c1C | 4.96
13 | Cc1cccc(CC(=O)N2CCN=C2SCc2ccc([N+](=O)[O-])cc2)c1 | 10.5
14 | Cc1cc(NC(=O)CSc2nc3c(c(=O)n2-c2ccccc2)SC(C)C3)no1 (centres unmarked) | -8.78
15 | COc1ccc(CN2CCN(Cc3ccccc3C(F)(F)F)CC2)c(OC)c1.O=C(O)C(=O)O | -39.5
16 | CCCC1(c2ccccc2)NC(=O)N(CC(=O)Nc2cc(S(=O)(=O)N3CCOCC3)ccc2Cl)C1=O (centres unmarked) | 12.8
17 | CN1C(=O)/C(=N/OC(=O)c2ccccc2)c2ccccc21 | -4.57
18 | CC(C)n1c(SC2C(=O)CC(C)(C)CC2=O)nc2c1c(=O)n(C)c(=O)n2C | 10.2
19 | CCCCN(CC)Cc1ccc(CNC(=S)Nc2ccc(C)cc2Cl)o1 | 7.32
20 | COc1ccc(NC(=O)CN2C(=O)CSc3ncccc32)cc1 | -0.368
21 | Cc1nn(-c2cc(C(F)(F)F)ccc2Cl)c2nc(C(Cl)(Cl)Cl)[nH]c(=O)c12 | 6.45
22 | O=C(NCCCn1ccnc1)c1cc(-c2cccc(O)c2)on1 | 10.6
23 | CCCc1cc(C(=O)Nc2cccc(C(C)=O)c2)no1 | 12.3

Row | Compound | hERG current change (%, negative = inhibition) at 1uM [%]
24 | CC1=CC(c2ccccc2)n2nc(N)nc2N1 (centres unmarked) | -4.83
25 | COc1cccc(C(c2c(N)[nH]c(=S)[nH]c2=O)c2c(N)[nH]c(=S)[nH]c2=O)c1 | 13
26 | CCOC(=O)c1nc2ccccc2c(=O)[nH]1 | 20.6
27 | O=C(Nc1ccccc1N1CCCC1)C1CCN(C(=O)c2ccc(Cl)cc2)CC1 | -15.9
28 | CN(CC(=O)N1CCN(c2ccccn2)CC1)S(=O)(=O)c1ccc(Br)cc1 | -13.3
29 | CC(=O)c1ccc(S(=O)(=O)Nc2ccc(C(=O)NCC(c3ccccc3)N(C)C)cc2)cc1 (centres unmarked) | 9.2
30 | O=C(CN1CCN(C(=O)C2CCCO2)CC1)Nc1ccc(Br)cc1 (centres unmarked) | -16.6
31 | COC(=O)c1cc2n(n1)CCN(Cc1ccc(OC)cc1)C2=O | 3.5
32 | CC1CCC(NC(=O)C2CCC(CNS(=O)(=O)c3cccc4nsnc34)CC2)CC1 (centres unmarked) | 4.44
33 | O=C(Nc1ccc(C(=O)N2CCCc3ccccc32)cc1)c1cccs1 | 13.4
34 | CC(C)CC1C(C#N)=C(N)OC2=C1C(=O)CC(c1ccccc1)C2 (centres unmarked) | 10.6
35 | CCCCNC(=O)/C(C#N)=C/c1ccc(F)cc1F | 6.27
36 | O=C(CCCC(=O)OCC(=O)c1cccs1)Nc1ccc(F)cc1 | 7.74
37 | O=C(/C=C/c1ccc(Cl)cc1)N(Cc1ccccc1)C1CCS(=O)(=O)C1 (centres unmarked) | -16.6
38 | COCCN(C(=O)COC(=O)CCc1ccc(OC)cc1)c1c(N)n(Cc2ccccc2)c(=O)[nH]c1=O | 13.3
39 | CCc1c(C(C)=O)oc2ccc3c(C)cc(=O)oc3c12 | 3.79
40 | Cc1ccc(/C=c2\sc3nc(-c4ccccc4Br)nn3c2=O)o1 | -3.31
41 | COc1ccccc1NC(=O)COc1ccccc1C(=O)c1cnn(-c2ccccc2)c1 | -9.37
42 | Cc1cccc(C)c1Nc1nnc(SCc2nc3ccccc3c(=O)[nH]2)s1 | 1.2
43 | CCOC(CNC(=O)c1ccc2c(c1)nc(C)n2-c1cccc(F)c1)OCC | 5.21
44 | Cc1ccc(NC(=O)N(Cc2ccc3c(c2)OCO3)Cc2cc3cc4c(cc3[nH]c2=O)OCCO4)cc1 | 18.9
45 | Nc1ccc(O)c2c(=O)cc(-c3ccccc3Cl)oc12 | 6.31
46 | O=C(O)CCN1C(=O)/C(=C\c2ccncc2)SC1=S | 10.5

Row | Compound | hERG current change (%, negative = inhibition) at 1uM [%]
47 | COC(=O)c1ccc(C(=O)OC)c(NC(=O)CN(C)Cc2ccccc2)c1 | 5.67
48 | CCCCNC(=O)Nc1ccc(C(O)(C(=O)OCC)C(F)(F)F)cc1 (centres unmarked) | 6.17
49 | COc1ccc(COC(=O)C2=C(C)NC(=O)NC2c2cc(Br)c(O)c(OC)c2)cc1 (centres unmarked) | 7.22
50 | Cc1ccccc1CSc1[nH]c(=O)ncc1C | 16.1
51 | O=C(NCc1ccc2c(c1)OCO2)C1CC(c2ccc(Cl)cc2)=NO1 (centres unmarked) | 7.13
52 | O=C(CCCl)Nc1nc2c(s1)CCc1ccccc1-2 | 9.38
53 | COc1ccc(/C=N/NC(=O)c2cc(-c3ccc(C)cc3C)nc3ccccc23)cc1COC(C)=O | 18.7
54 | Cc1nnc(NC(=O)CSc2nc(C3CCCCC3)nc3ccccc23)s1 | 6.92
55 | COc1ccc(CC(NC(C)=O)C(=O)NC2CCN(C(=O)c3ccncc3)CC2)cc1OC (centres unmarked) | 8.46
56 | Cc1cc(OCC(=O)NC(C)C)cc(C)c1Br | 6.7
57 | COc1c(CC=C(C)C)cc(C2CC(=O)c3c(O)cc(O)cc3O2)cc1CC=C(C)C (centres unmarked) | 2.68
58 | Cc1cc(C(=O)COc2ccc(-c3nnco3)cc2)c(C)n1Cc1ccccc1 | 4.45
59 | COc1cc(/C=C2\SC(=S)N(C(C(=O)O)c3ccccc3)C2=O)ccc1O (centres unmarked) | 0.123
60 | Cc1ccc(NC2=NC3(CCCCC3)N=C(N)N2)c(C)c1 | -3.95
61 | Cc1cc(=O)[nH]c(Nc2ccc(Cl)cc2)n1 | 22.6
62 | Cc1ccc(F)cc1NC(=O)C1C2CCC(O2)C1C(=O)O (centres unmarked) | 13.3
63 | Cc1ccc(C)c(-n2c(SCC(=O)O)nc3sc4c(c3c2=O)CCCC4)c1 | 3.82
64 | O=C1CN(C(=O)COc2ccccc2)c2ccccc2N1 | 19.2
65 | COC(=O)C1=CN(C2CCCCC2)C=C(C(=O)OC)C1c1ccc2c(c1)OCO2 | 7.32
66 | Cc1ccc(CNC(=O)CNC(=S)N(Cc2ccccc2)Cc2cccnc2)cc1 | 8.32
67 | Cc1cccc(NC2=CC(=O)OC(C)C2)c1 (centres unmarked) | 8.35
68 | COC(=O)c1ccc(-n2ccnc2)cc1 | 13.6
69 | O=[N+]([O-])c1ccc(N2CCN(c3ccc(O)cc3)CC2)cn1 | -11.6

Row | Compound | hERG current change (%, negative = inhibition) at 1uM [%]
70 | COc1cccc(C(=O)Nc2ccc3c(c2)C(=O)N(CCC(=O)O)C3=O)c1 | 8.26
71 | COC(=O)c1ccc(N2C(=O)c3ccc(OC)c(OC)c3C2=O)cc1 | 1.5
72 | O=[N+]([O-])c1ccc(S(=O)(=O)Nc2nnc(C3CCCCC3)s2)cc1 | 10.8
73 | CC(C)n1c(COc2ccccc2)nc2ccccc21 | 13.7
74 | CC(Sc1nc2ccccc2[nH]1)C(=O)O (centres unmarked) | 10.8
75 | COC(=O)c1cc(S(=O)(=O)NCc2ccccc2OC)cn1C | 10.6
76 | COC(=O)c1ccc(C(=O)OC)c(NC2=NS(=O)(=O)c3ccccc32)c1 | 5.02
77 | Cc1ccc(S(=O)(=O)c2cc(C)cc(S(=O)(=O)Nc3ccc(C(=O)O)cc3)c2C)cc1 | 9.81
78 | O=C(COC(=O)c1ccncc1)NCCCc1ccccc1 | 10.9
79 | CCCCOC(=O)N1CCOCCOCCOCCOCC1 | -6.34
80 | O=C(NNC(=O)c1ccccc1O)c1ccc(Br)cc1 | 18.5
81 | O=C(COC(=O)c1c(Cl)cccc1Cl)Nc1ccccc1Br | 12.7
82 | CCN1CCN(c2ccc(S(=O)(=O)N3CCOCC3)cc2NC(=O)CCOc2ccccc2)CC1 | -7.31
83 | CCCCCCOC(=O)C1=C(C)NC(=O)NC1c1ccc(O)cc1 (centres unmarked) | 2.67
84 | O=C(Nc1ccnn1C1CCN(Cc2cccnc2)CC1)c1ccccc1Cl | -11.5
85 | C=CCn1c(SCc2ccc(C#N)cc2)nnc1-c1cccc(Cl)c1 | -46.8
86 | O=C(O)CCCNC(=O)Nc1ccccc1 | 18.2
87 | CC(C)CCN(C(=O)c1ccncc1)c1c(N)n(Cc2ccccc2)c(=O)[nH]c1=O | 9.05
88 | O=C(c1ccc(O)c(Cl)c1)N1CCN(S(=O)(=O)c2ccccc2)CC1 | 9.96
89 | Cn1cccc1Cc1nnc(SCC(=O)N2CCc3ccccc32)n1-c1ccc(F)cc1 | 7.18
